Data taken from the supplement of paper PMC9151546.
Single values are uncertain, as repeats are few or missing.

Tests used:
CHO-K1 [1] = experiment: micronucleus frequency (% of nucleated events); higher = more micronuclei (genotoxic)
CHO-K1 [2] = experiment: hypodiploid nuclei frequency (% of nucleated events); higher = more hypodiploid events (aneugenic)
Description: (§1)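 Flow-cytometric in vitro micronucleus assay (Litron MicroFlow) in CHO-K1 cells in 96-well plates, 19 concentrations (4.5-200 µM, n=1 per concentration). Without S9, cells were exposed for 24 h and sampled at 48 h. With Aroclor 1254-induced rat liver S9, cells were exposed for 3-4 h and sampled at 27-28 h. Read-outs are %MN and %hypodiploid nuclei relative to nucleated events, and relative survival as the nuclei-to-bead ratio versus the 1% DMSO vehicle control (x100).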

CHO-K1 [3] = experiment: relative survival (nuclei to bead ratio vs DMSO control) (% of vehicle control); higher = more surviving cells
Description: as §1
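Wherever hypodiploid nuclei frequency (% of nucleated events) is given: hypodiploid nuclei gated on a flow cytometer with 488 nm excitation after SYTOX Green staining, cultures at 37 °C, positive controls vinblastine without S9 and cyclophosphamide with S9.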
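Wherever micronucleus frequency (% of nucleated events) is given: cells lysed with nuclei stained by SYTOX Green, then micronucleus-gated events counted against nucleated events by flow cytometry with 488 nm excitation.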
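Wherever relative survival (nuclei to bead ratio vs DMSO control) is given: Lysed-cell nuclei stained with SYTOX Green and counted against counting beads by flow cytometry at 488 nm excitation, with vinblastine (no S9) and cyclophosphamide (plus S9) as positive controls.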

Cc1cccc([N+](=O)[O-])c1C [1,2-Dimethyl-3-nitrobenzene]
Details	hypodiploid nuclei frequency, CHO-K1 [2] [%]	micronucleus frequency, CHO-K1 [1] [%]	relative survival, CHO-K1 [3]
concentration: 4.5 (µM), S9 metabolic activation: with S9, exposure time: 3-4 hours	0.28	1.44	161
concentration: 4.5 (µM), S9 metabolic activation: without S9, exposure time: 24 hours	0.56	1.92	148
concentration: 5.63 (µM), S9 metabolic activation: with S9, exposure time: 3-4 hours	0.18	1.54	123
concentration: 5.63 (µM), S9 metabolic activation: without S9, exposure time: 24 hours	0.64	1.36	118
concentration: 7.04 (µM), S9 metabolic activation: with S9, exposure time: 3-4 hours	0.34	1.96	130
concentration: 7.04 (µM), S9 metabolic activation: without S9, exposure time: 24 hours	0.6	1.68	132
concentration: 8.8 (µM), S9 metabolic activation: with S9, exposure time: 3-4 hours	0.3	1.72	132
concentration: 8.8 (µM), S9 metabolic activation: without S9, exposure time: 24 hours	0.72	2.44	148
concentration: 11 (µM), S9 metabolic activation: with S9, exposure time: 3-4 hours	0.38	2.08	138
concentration: 11 (µM), S9 metabolic activation: without S9, exposure time: 24 hours	0.68	1.94	116
concentration: 13.7 (µM), S9 metabolic activation: with S9, exposure time: 3-4 hours	0.46	2.52	125
concentration: 13.7 (µM), S9 metabolic activation: without S9, exposure time: 24 hours	0.52	1.36	140
concentration: 17.2 (µM), S9 metabolic activation: with S9, exposure time: 3-4 hours	0.28	1.48	128
concentration: 17.2 (µM), S9 metabolic activation: without S9, exposure time: 24 hours	0.52	1.66	134
concentration: 21.5 (µM), S9 metabolic activation: with S9, exposure time: 3-4 hours	0.18	1.14	114
concentration: 21.5 (µM), S9 metabolic activation: without S9, exposure time: 24 hours	0.72	1.88	122
concentration: 26.8 (µM), S9 metabolic activation: with S9, exposure time: 3-4 hours	0.12	1.38	135
concentration: 26.8 (µM), S9 metabolic activation: without S9, exposure time: 24 hours	0.76	2.18	119
concentration: 33.6 (µM), S9 metabolic activation: with S9, exposure time: 3-4 hours	0.32	1.5	139
concentration: 33.6 (µM), S9 metabolic activation: without S9, exposure time: 24 hours	0.92	2.24	166
concentration: 41.9 (µM), S9 metabolic activation: with S9, exposure time: 3-4 hours	0.34	1.58	109
concentration: 41.9 (µM), S9 metabolic activation: without S9, exposure time: 24 hours	0.94	1.88	151
concentration: 52.4 (µM), S9 metabolic activation: with S9, exposure time: 3-4 hours	0.28	1.72	114
concentration: 52.4 (µM), S9 metabolic activation: without S9, exposure time: 24 hours	1.38	2.98	121
concentration: 65.5 (µM), S9 metabolic activation: with S9, exposure time: 3-4 hours	0.24	0.78	83.4
concentration: 65.5 (µM), S9 metabolic activation: without S9, exposure time: 24 hours	1	2.36	135
concentration: 81.9 (µM), S9 metabolic activation: with S9, exposure time: 3-4 hours	0.22	1.32	94.2
concentration: 81.9 (µM), S9 metabolic activation: without S9, exposure time: 24 hours	1.5	3.22	149
concentration: 102 (µM), S9 metabolic activation: with S9, exposure time: 3-4 hours	0.14	0.86	95.4
concentration: 102 (µM), S9 metabolic activation: without S9, exposure time: 24 hours	1.16	2.9	146
concentration: 128 (µM), S9 metabolic activation: with S9, exposure time: 3-4 hours	0.16	1.12	95.6
concentration: 128 (µM), S9 metabolic activation: without S9, exposure time: 24 hours	1.1	2.74	121
concentration: 160 (µM), S9 metabolic activation: with S9, exposure time: 3-4 hours	0.18	1.08	103
concentration: 160 (µM), S9 metabolic activation: without S9, exposure time: 24 hours	1.28	3.96	120
concentration: 200 (µM), S9 metabolic activation: with S9, exposure time: 3-4 hours	0.24	1.18	110
concentration: 200 (µM), S9 metabolic activation: without S9, exposure time: 24 hours	1.8	3.38	109

Clc1cccc(Cl)c1 [1,3-Dichlorobenzene]
Details	hypodiploid nuclei frequency, CHO-K1 [2] [%]	micronucleus frequency, CHO-K1 [1] [%]	relative survival, CHO-K1 [3]
concentration: 4.5 (µM), S9 metabolic activation: with S9, exposure time: 3-4 hours	0.26	1.08	99.5
concentration: 4.5 (µM), S9 metabolic activation: without S9, exposure time: 24 hours	0.42	1.08	98.6
concentration: 5.63 (µM), S9 metabolic activation: with S9, exposure time: 3-4 hours	0.2	1.32	84.2
concentration: 5.63 (µM), S9 metabolic activation: without S9, exposure time: 24 hours	0.48	0.88	115
concentration: 7.04 (µM), S9 metabolic activation: with S9, exposure time: 3-4 hours	0.18	1.04	99.3
concentration: 7.04 (µM), S9 metabolic activation: without S9, exposure time: 24 hours	0.66	1.22	92.1
concentration: 8.8 (µM), S9 metabolic activation: with S9, exposure time: 3-4 hours	0.38	0.92	95.7
concentration: 8.8 (µM), S9 metabolic activation: without S9, exposure time: 24 hours	0.66	1.1	80.9
concentration: 11 (µM), S9 metabolic activation: with S9, exposure time: 3-4 hours	0.28	1.16	107
concentration: 11 (µM), S9 metabolic activation: without S9, exposure time: 24 hours	0.58	1.26	93.6
concentration: 13.7 (µM), S9 metabolic activation: with S9, exposure time: 3-4 hours	0.28	1.14	94.4
concentration: 13.7 (µM), S9 metabolic activation: without S9, exposure time: 24 hours	0.64	1.32	85.6
concentration: 17.2 (µM), S9 metabolic activation: with S9, exposure time: 3-4 hours	0.16	0.96	95.5
concentration: 17.2 (µM), S9 metabolic activation: without S9, exposure time: 24 hours	0.54	1.16	97.8
concentration: 21.5 (µM), S9 metabolic activation: with S9, exposure time: 3-4 hours	0.44	1.58	110
concentration: 21.5 (µM), S9 metabolic activation: without S9, exposure time: 24 hours	0.4	1.56	123
concentration: 26.8 (µM), S9 metabolic activation: with S9, exposure time: 3-4 hours	0.16	1.1	139
concentration: 26.8 (µM), S9 metabolic activation: without S9, exposure time: 24 hours	0.64	1.76	74.4
concentration: 33.6 (µM), S9 metabolic activation: with S9, exposure time: 3-4 hours	0.32	1.32	134
concentration: 33.6 (µM), S9 metabolic activation: without S9, exposure time: 24 hours	0.68	1.38	99
concentration: 41.9 (µM), S9 metabolic activation: with S9, exposure time: 3-4 hours	0.26	0.9	111
concentration: 41.9 (µM), S9 metabolic activation: without S9, exposure time: 24 hours	0.82	1.16	88.1
concentration: 52.4 (µM), S9 metabolic activation: with S9, exposure time: 3-4 hours	0.34	1.1	87.5
concentration: 52.4 (µM), S9 metabolic activation: without S9, exposure time: 24 hours	0.46	1.4	86.5
concentration: 65.5 (µM), S9 metabolic activation: with S9, exposure time: 3-4 hours	0.38	0.66	81
concentration: 65.5 (µM), S9 metabolic activation: without S9, exposure time: 24 hours	0.56	1.1	79.1
concentration: 81.9 (µM), S9 metabolic activation: with S9, exposure time: 3-4 hours	0.28	1.36	99.5
concentration: 81.9 (µM), S9 metabolic activation: without S9, exposure time: 24 hours	0.74	1.2	88.1
concentration: 102 (µM), S9 metabolic activation: with S9, exposure time: 3-4 hours	0.32	1.46	95.2
concentration: 102 (µM), S9 metabolic activation: without S9, exposure time: 24 hours	0.62	1.36	92.1
concentration: 128 (µM), S9 metabolic activation: with S9, exposure time: 3-4 hours	0.24	1.34	103
concentration: 128 (µM), S9 metabolic activation: without S9, exposure time: 24 hours	0.82	1.94	79.9
concentration: 160 (µM), S9 metabolic activation: with S9, exposure time: 3-4 hours	0.26	1.74	100
concentration: 160 (µM), S9 metabolic activation: without S9, exposure time: 24 hours	0.9	1.86	96.2
concentration: 200 (µM), S9 metabolic activation: with S9, exposure time: 3-4 hours	0.22	2.08	82.4
concentration: 200 (µM), S9 metabolic activation: without S9, exposure time: 24 hours	1.1	1.76	100
